Source: patent US20240384006A1 (Amgen, published 2024)

T1: cyno CD20 (cyno, UniProt M4ZHZ6 1-297)
T1 construct: whole, on cells; also called cy CD20
T1 sequence: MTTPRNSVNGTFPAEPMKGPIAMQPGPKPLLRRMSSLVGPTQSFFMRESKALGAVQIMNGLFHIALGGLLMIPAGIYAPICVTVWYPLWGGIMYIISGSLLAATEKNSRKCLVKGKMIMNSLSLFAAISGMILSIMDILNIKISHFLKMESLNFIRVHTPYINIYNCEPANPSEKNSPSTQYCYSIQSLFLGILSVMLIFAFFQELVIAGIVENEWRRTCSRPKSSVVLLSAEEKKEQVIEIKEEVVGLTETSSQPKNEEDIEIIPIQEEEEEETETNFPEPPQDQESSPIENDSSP

T2: human CD22 (human, UniProt P20273 20-847)
T2 construct: whole, on cells; also called hu CD22
T2 sequence (looked up): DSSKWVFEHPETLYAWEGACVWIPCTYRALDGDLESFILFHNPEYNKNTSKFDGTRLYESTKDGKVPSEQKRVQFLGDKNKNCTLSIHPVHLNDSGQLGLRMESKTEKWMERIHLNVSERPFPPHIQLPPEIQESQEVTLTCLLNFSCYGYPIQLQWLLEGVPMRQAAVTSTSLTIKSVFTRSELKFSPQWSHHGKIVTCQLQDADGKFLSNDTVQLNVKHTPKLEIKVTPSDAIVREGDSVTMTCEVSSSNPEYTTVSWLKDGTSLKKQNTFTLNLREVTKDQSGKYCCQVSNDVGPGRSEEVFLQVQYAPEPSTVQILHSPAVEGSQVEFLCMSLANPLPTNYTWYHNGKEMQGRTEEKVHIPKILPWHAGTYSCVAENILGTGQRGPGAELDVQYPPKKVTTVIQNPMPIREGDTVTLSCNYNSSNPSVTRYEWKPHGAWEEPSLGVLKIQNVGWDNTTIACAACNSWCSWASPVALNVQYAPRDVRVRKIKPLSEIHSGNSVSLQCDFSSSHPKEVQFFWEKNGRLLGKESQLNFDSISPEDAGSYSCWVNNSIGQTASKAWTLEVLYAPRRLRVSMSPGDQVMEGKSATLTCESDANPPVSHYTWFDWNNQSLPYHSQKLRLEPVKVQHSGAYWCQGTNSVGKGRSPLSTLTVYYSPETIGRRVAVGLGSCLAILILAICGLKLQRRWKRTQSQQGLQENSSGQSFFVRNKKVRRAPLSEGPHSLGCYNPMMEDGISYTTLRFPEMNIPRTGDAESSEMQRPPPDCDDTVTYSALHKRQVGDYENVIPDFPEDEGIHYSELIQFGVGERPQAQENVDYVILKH

T3: human CD20 (human, UniProt P11836 1-297)
T3 sequence (looked up): T1 sequence with P25S, L31F, A51T, V157A, R217K, S226N, V227I, V239T

B1: CD20 82-D2 CC × CD22 43-A8 CC × I2E × scFc (H1C) (bispecific antibody)
chain: EVQLLESGGGLVQPGGSLRLSCAASGFTFSGHAMTWVRQAPGKCLEWLSTIYGSGGYTYYAGSVKGRFTISRDNSKNTLYLQMNSLRAEDTAVYYCAKVGGYDWYFDLWGRGTLVTVSSGGGGSGGGGSGGGGSSYELTQPPSVSVALGQTARITCGGHNIGSKNVHWYQQKPGQAPVLVIYRDTNRPSGIPERFSGSNSGNTATLTISRAQAGDEADYYCQLWDSTTVVFGCGTKLTVLSGGGGSQVQLVQSGGEVKKPGASVKVSCKASGYTFTSYGISWVRQAPGQCLEWMGWISAYTGETLYAQKLQGRVTMTRDTSTSTAYMELRSLRSDDTAVYYCARDPDYYGSGSYSDYWGQGTLVTVSSGGGGSGGGGSGGGGSEIVLTQSPATLSVSPGERATLSCRASQSVSSNLAWYQQKPGQAPRLLIYGASSRATGIPARFSGSGSGTEFTLTISSLQSEDFAVYYCQQYHSWPLLTFGCGTKVEIKSGGGGSEVQLVESGGGLVQPGGSLKLSCAASGFTFNKYAINWVRQAPGKGLEWVARIRSKYNNYATYYADAVKDRFTISRDDSKNTVYLQMNNLKTEDTAVYYCARAGNFGSSYISYWAYWGQGTLVTVSSGGGGSGGGGSGGGGSQTVVTQEPSLTVSPGGTVTIT[in this place about 80 residues]FGSGTKLTVLGGGG[in this place human IgG1 Fc with R292C N297G V302C (EU numbers)]GGGGSGGGGSGGGGSGGGGSGGGGSGGGGS[in this place human IgG1 Fc with R292C N297G V302C (EU numbers)]
notes: Single chain: anti-CD20 scFv, anti-CD22 scFv, anti-CD3 scFv (I2E), scFc
B2: CD20 82-E2 CC × CD22 43-F7 CC × I2E × scFc (M8E) (bispecific antibody)
chain: EVQLVESGGGLVQPGGSLTLSCAASGFTFHDYTMHWVRQTPGKCLEWLSGIGWNGYSKGYADSVKGRFTISRDNAKNSLFLQMNSLTSDDTALYYCVKDYHYGSGILDNYYGLDVWGQGTTVTVSSGGGGSGGGGSGGGGSEIVLTQSPATLSVSPGERATLSCRASQSISNNLAWYQQKPGQAPRLLIYGASSRATGIPDRFSGSGSGTEFTLTISSLQSEDFAVYYCQQYKNWPLTFGCGTKVDIKSGGGGSQVQLVQSGGEVKKPGASVKVSCKASGYTFTSYGISWVRQAPGQCLEWMGWISPQTGNAIYAQKLQGRVTMTRDTSTSTAYMELRSLRSDDTAVYYCARDPDYYGSGSYSDYWGQGTLVTVSSGGGGSGGGGSGGGGSEIVLTQSPATLSVSPGERATLSCRASQSVSSNLAWYQQKPGQAPRLLIYGASSRATGIPARFSGSGSGTEFTLTISSLQSEDFAVYYCQQYHSWPLLTFGCGTKVEIKSGGGGSEVQLVESGGGLVQPGGSLKLSCAASGFTFNKYAINWVRQAPGKGLEWVARIRSKYNNYATYYADAVKDRFTISRDDSKNTVYLQMNNLKTEDTAVYYCARAGNFGSSYISYWAYWGQGTLVTVSSGGGGSGGGGSGGGGSQTVVTQEPSLTVSPGGTVTIT[in this place about 80 residues]FGSGTKLTVLGGGG[in this place human IgG1 Fc with R292C N297G V302C (EU numbers)]GGGGSGGGGSGGGGSGGGGSGGGGSGGGGS[in this place human IgG1 Fc with R292C N297G V302C (EU numbers)]
notes: as for B1

Columns and labels:
cyno CD22 [1] = biological target: T4, cyno CD22 (cyno); assay: cyno Kd divided by human Kd, cell-based affinity on CHO cells
T4 construct: whole, on cells; also called cy CD22

cyno CD20 [2] = biological target: T1, cyno CD20; assay: as above
human CD22 [3] = biological target: T2, human CD22; assay: flow cytometry on CHO cells expressing human CD22, one site-specific binding fit, mean of three
human CD20 [4] = biological target: T3, human CD20; assay: cell-based or functional assay
human CD22 [5] = biological target: T2, human CD22; assay: cell-based or functional assay
cyno CD22 [6] = biological target: T4, cyno CD22; assay: flow cytometry on CHO cells expressing cyno CD22, one site-specific binding fit, mean of three
cyno CD20 [7] = biological target: T1, cyno CD20; assay: flow cytometry on CHO cells expressing cyno CD20, one site-specific binding fit, mean of three
human CD20 [8] = biological target: T3, human CD20; assay: flow cytometry on CHO cells expressing human CD20, one site-specific binding fit, mean of three

Binder | Affinity gap Kdcy/Kdhu CD22 (cyno CD22 [1]) | Affinity gap Kdcy/Kdhu CD20 (cyno CD20 [2]) | Kd (human CD22 [3]) [nM] | EC50, 48-hour FACS based cytotoxicity assay, Oci-Ly 1 CD22 k.o. #A1 (human CD20 [4]) [nM] | EC50, 48-hour FACS based cytotoxicity assay, Oci-Ly 1 CD20 k.o. #A5 (human CD22 [5]) [nM] | Kd (cyno CD22 [6]) [nM] | Kd (cyno CD20 [7]) [nM] | Kd (human CD20 [8]) [nM]
B1 | 5.87 | 1.19 | 0.31 | 0.0138 | 0.0141 | 1.82 | 15.8 | 13.3
B2 | 16.6 | 1.01 | 0.25 | 0.00151 | 0.00569 | 4.16 | 4.76 | 4.69

Where a chain is given by its changes, count along the chain named. Names and notes keep the numbering of the source.
